Measured values: a collection of fitness landscapes (doi:10.1016/j.celrep.2020.107928)
Over roughly 81,000 sequences, “one-hybrid fitness for binding NBS DNA” has its median near -0.1; the highest 2% begin near 0.36. Some of the results follow.

B1: Caulobacter ParB omega fusion; a variant is named by its letters at X, in order, B8GW30 (parent)
chain: MESVVVGEPGMSEGRRGLGRGLSALLGEVDAAPAQAPGEQLGGSREAPIEILQRNPDQPRRTFREEDLEDLSNSIREKGVLQPILVRPSPDTAGEYQIVAGERAWRAAQRAGLKTVPIMVRELDDLAVLEIGIIENVQRADLNVLEEALSYKVLMEKFERTQENIAQTIGKSXSHVANXMRLLXLPDEVQSYLVSGELTAXHARAIAAAADPVALAKQIIEGGLSVRETEALARKAPNLSAGKSKGGRPPRVKDTDTQALESDLSSVLGLDVSIDHRGSTGTLTITYATLEQLDDLCNRLTRGI

Variants of: B1
Assay: one-hybrid fitness for binding NBS DNA (the Noc-binding site; scaled: cognate 1, non-cognate 0); higher = stronger binding
Details: with NBS DNA site
Outline: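 Fitness here means the log change in variant-to-wild-type read ratio between plasmids sequenced before and after selection. That scale was set so cognate equals 1 and non-cognate equals 0. The selection was a bacterial one-hybrid screen of Caulobacter ParB libraries, four specificity codons randomised, in E. coli USO carrying a HIS3 reporter with the site 19 bp from the promoter, grown 48 hours at 37°C on M9-minus-histidine with 0.1 mM IPTG and 5 mM 3-AT.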

Row | Variant | one-hybrid fitness for binding NBS DNA
1 | IFRG | ≤ 0.2
2 | GGGV | ≤ 0.2
3 | MNTI | ≤ 0.2
4 | IPSD | ≤ 0.2
5 | HKTE | ≤ 0.2
6 | DKAA | ≤ 0.2
7 | KCSM | ≤ 0.2
8 | VEKR | ≤ 0.2
9 | DDGS | ≤ 0.2
10 | EDTT | ≤ 0.2
11 | MKWR | ≤ 0.2
12 | CTDT | ≤ 0.2
13 | CCQW | ≤ 0.2
14 | FKTT | ≤ 0.2
15 | DKQT | ≤ 0.2
16 | FHKC | ≤ 0.2
17 | ACVR | ≤ 0.2
18 | MKFW | ≤ 0.2
19 | APTP | ≤ 0.2
20 | WVSR | ≤ 0.2
21 | TSMP | ≤ 0.2
22 | SHEG | ≤ 0.2
23 | QHTT | 0.412
24 | VHER | ≤ 0.2

Row | Variant | one-hybrid fitness for binding NBS DNA
25 | SMSE | ≤ 0.2
26 | RSVV | ≤ 0.2
27 | IKSD | ≤ 0.2
28 | EPRS | ≤ 0.2
29 | NTHF | 0.259
30 | LRTW | ≤ 0.2
31 | RLHI | ≤ 0.2
32 | SVYP | ≤ 0.2
33 | RIYS | 0.413
34 | SSPI | ≤ 0.2
35 | STLN | ≤ 0.2
36 | YAVL | ≤ 0.2
37 | RPAL | ≤ 0.2
38 | VWRY | ≤ 0.2
39 | KKPI | ≤ 0.2
40 | RTRP | ≤ 0.2
41 | TRTD | ≤ 0.2
42 | VMTG | ≤ 0.2
43 | CAQE | ≤ 0.2
44 | IAMM | ≤ 0.2
45 | KAQG | ≤ 0.2
46 | QQNP | ≤ 0.2
47 | TYWT | ≤ 0.2
48 | HRFQ | ≤ 0.2

Row | Variant | one-hybrid fitness for binding NBS DNA
49 | AGKN | ≤ 0.2
50 | ILHY | ≤ 0.2
51 | MFKS | ≤ 0.2
52 | HLDR | ≤ 0.2
53 | DQRY | ≤ 0.2
54 | IKSL | ≤ 0.2
55 | HGLT | ≤ 0.2
56 | TGAS | ≤ 0.2
57 | FIFL | ≤ 0.2
58 | RVWP | ≤ 0.2
59 | QDCL | ≤ 0.2
60 | PGAT | ≤ 0.2
61 | AQGR | ≤ 0.2
62 | QFNE | ≤ 0.2
63 | VICR | ≤ 0.2
64 | DTIG | ≤ 0.2
65 | HTSE | ≤ 0.2
66 | AWKG | ≤ 0.2
67 | AQGA | ≤ 0.2
68 | GGMS | ≤ 0.2
69 | REMC | ≤ 0.2
70 | FPNS | ≤ 0.2
71 | WPPN | ≤ 0.2
72 | DNHG | ≤ 0.2

Row | Variant | one-hybrid fitness for binding NBS DNA
73 | TIDY | ≤ 0.2
74 | IWTT | ≤ 0.2
75 | NIHV | ≤ 0.2
76 | NKDV | ≤ 0.2
77 | KIFG | ≤ 0.2
78 | WLLR | ≤ 0.2
79 | VTSQ | ≤ 0.2
80 | ITTA | ≤ 0.2
81 | GNTV | ≤ 0.2
82 | TQCG | ≤ 0.2
83 | WCRS | ≤ 0.2
84 | TELD | ≤ 0.2
85 | QNSN | ≤ 0.2
86 | YPCS | ≤ 0.2
87 | SYQF | ≤ 0.2
88 | SSNL | ≤ 0.2
89 | QTQH | 0.346
90 | DDGG | ≤ 0.2
91 | RPKN | ≤ 0.2
92 | AAAE | ≤ 0.2
93 | IARV | ≤ 0.2
94 | NFCC | ≤ 0.2
95 | YLCE | ≤ 0.2
96 | PSCG | ≤ 0.2

Row | Variant | one-hybrid fitness for binding NBS DNA
97 | LITR | ≤ 0.2
98 | KSGL | ≤ 0.2
99 | PPAS | ≤ 0.2
100 | MNSL | ≤ 0.2
101 | PPML | ≤ 0.2
102 | EVLS | ≤ 0.2
103 | NCNL | ≤ 0.2
104 | RKSA | 0.284
105 | CHVG | ≤ 0.2
106 | LDLK | ≤ 0.2
107 | DMKR | ≤ 0.2
108 | SKMS | ≤ 0.2
109 | EAPH | ≤ 0.2
110 | CPLY | ≤ 0.2
111 | SWVN | ≤ 0.2
112 | YFDP | ≤ 0.2
113 | WSMN | ≤ 0.2
114 | VTME | ≤ 0.2
115 | WTIS | ≤ 0.2
116 | PADR | ≤ 0.2
117 | RYRG | ≤ 0.2
118 | MKCG | ≤ 0.2
119 | IFAW | ≤ 0.2
120 | YCMS | ≤ 0.2

Row | Variant | one-hybrid fitness for binding NBS DNA
121 | KLCS | ≤ 0.2
122 | QWEC | ≤ 0.2
123 | MFRC | ≤ 0.2
124 | TANG | ≤ 0.2
125 | LCTC | ≤ 0.2
126 | EPRT | ≤ 0.2
127 | FECG | ≤ 0.2
128 | GWTR | ≤ 0.2
129 | RWPM | ≤ 0.2
130 | PNIR | ≤ 0.2
131 | VPHS | ≤ 0.2
132 | MPRM | ≤ 0.2
133 | MPTT | ≤ 0.2
134 | QGAW | ≤ 0.2
135 | HRGN | ≤ 0.2
136 | MCNT | ≤ 0.2
137 | CQAC | ≤ 0.2
138 | ALCS | ≤ 0.2
139 | YYTR | ≤ 0.2
140 | RLQR | 0.43
141 | SSHF | ≤ 0.2
142 | PTDC | ≤ 0.2
143 | QDLH | ≤ 0.2
144 | LKTM | ≤ 0.2

Row | Variant | one-hybrid fitness for binding NBS DNA
145 | LGDV | ≤ 0.2
146 | YYQP | ≤ 0.2
147 | GECR | ≤ 0.2
148 | LSQN | ≤ 0.2
149 | FKST | ≤ 0.2
150 | HHTK | ≤ 0.2
151 | HSQT | ≤ 0.2
152 | MIGG | ≤ 0.2
153 | CKQT | ≤ 0.2
154 | FCRR | 0.277
155 | GVIR | ≤ 0.2
156 | VVYS | ≤ 0.2
157 | QRSD | 0.208
158 | DRYS | ≤ 0.2
159 | ERWG | ≤ 0.2
160 | VEGN | ≤ 0.2
161 | WYYG | ≤ 0.2
162 | LLAA | ≤ 0.2
163 | HPAV | ≤ 0.2
164 | SNCE | ≤ 0.2
165 | NSTT | ≤ 0.2
166 | DPWI | ≤ 0.2
167 | GYLS | ≤ 0.2
168 | MTHC | ≤ 0.2

Row | Variant | one-hybrid fitness for binding NBS DNA
169 | VNDC | ≤ 0.2
170 | CPTW | ≤ 0.2
171 | IRKY | 0.221
172 | VVMT | ≤ 0.2
173 | NPYR | ≤ 0.2
174 | AKTY | ≤ 0.2
175 | QGLT | ≤ 0.2
176 | TIIL | ≤ 0.2
177 | HQHH | ≤ 0.2
178 | TERF | ≤ 0.2
179 | NRMF | ≤ 0.2
180 | SLTG | ≤ 0.2
181 | GTQS | ≤ 0.2
182 | YHAR | ≤ 0.2
183 | HVYG | ≤ 0.2
184 | LVAT | ≤ 0.2
185 | FGGN | ≤ 0.2
186 | TLKT | ≤ 0.2
187 | ILHF | ≤ 0.2
188 | PDPP | ≤ 0.2
189 | KCST | ≤ 0.2
190 | MCSE | ≤ 0.2
191 | YRDR | ≤ 0.2
192 | LMTK | ≤ 0.2

Row | Variant | one-hybrid fitness for binding NBS DNA
193 | ESHY | ≤ 0.2
194 | TARY | ≤ 0.2
195 | METE | ≤ 0.2
196 | KKLR | ≤ 0.2
197 | MTDT | ≤ 0.2
198 | MITD | ≤ 0.2
199 | PTYY | ≤ 0.2
200 | QFRY | ≤ 0.2
201 | KWKI | ≤ 0.2
202 | VQNC | ≤ 0.2
203 | HTIG | ≤ 0.2
204 | PHST | ≤ 0.2
205 | PNNM | ≤ 0.2
206 | LDPC | ≤ 0.2
207 | FTCR | ≤ 0.2
208 | VEVR | ≤ 0.2
209 | PTDW | ≤ 0.2
210 | SGTL | ≤ 0.2
211 | EREI | ≤ 0.2
212 | IYTM | ≤ 0.2
213 | LSTI | ≤ 0.2
214 | AMTK | ≤ 0.2
215 | KRAG | ≤ 0.2
216 | TMNK | ≤ 0.2

Row | Variant | one-hybrid fitness for binding NBS DNA
217 | AHRT | ≤ 0.2
218 | LNKF | ≤ 0.2
219 | EDTC | ≤ 0.2
220 | WNRV | ≤ 0.2
221 | PKDD | ≤ 0.2
222 | PVPY | ≤ 0.2
223 | RIFA | ≤ 0.2
224 | RTRN | 0.277
225 | TPST | ≤ 0.2
226 | KGVR | ≤ 0.2
227 | RHGT | 0.344
228 | QMHS | 0.451
229 | DLGC | ≤ 0.2
230 | RKVP | ≤ 0.2
231 | ATTY | ≤ 0.2
232 | LAGD | ≤ 0.2
233 | MEYC | ≤ 0.2
234 | GNQF | ≤ 0.2
235 | ELRN | ≤ 0.2
236 | QNKT | 0.357
237 | RCPV | ≤ 0.2
238 | VIMA | ≤ 0.2
239 | TFDD | ≤ 0.2
240 | ISYP | ≤ 0.2

Row | Variant | one-hybrid fitness for binding NBS DNA
241 | QPQY | ≤ 0.2
242 | AFLM | ≤ 0.2
243 | KQRC | ≤ 0.2
244 | TRSR | 0.345
245 | MVEY | ≤ 0.2
246 | DVQY | ≤ 0.2
247 | SESP | ≤ 0.2
248 | INSM | ≤ 0.2
249 | RNFD | ≤ 0.2
250 | EWTE | ≤ 0.2
251 | ALQP | ≤ 0.2
252 | TNAS | ≤ 0.2
253 | MFNK | ≤ 0.2
254 | HTKK | ≤ 0.2
255 | SSQQ | ≤ 0.2
256 | VPKC | ≤ 0.2
257 | TVEG | ≤ 0.2
258 | CRMI | ≤ 0.2
259 | DECC | ≤ 0.2
260 | QRGP | 0.301
261 | DRNR | ≤ 0.2
262 | SADR | ≤ 0.2
263 | AYGH | ≤ 0.2
264 | SRLF | ≤ 0.2

Row | Variant | one-hybrid fitness for binding NBS DNA
265 | SARH | ≤ 0.2
266 | QTHH | 0.44
267 | SANW | ≤ 0.2
268 | WFLC | ≤ 0.2
269 | TCSS | ≤ 0.2
270 | IQKC | ≤ 0.2
271 | RYTD | ≤ 0.2
272 | VLAS | ≤ 0.2
273 | RIIF | ≤ 0.2
274 | GKRM | ≤ 0.2
275 | ILVV | ≤ 0.2
276 | KSWR | ≤ 0.2
277 | MVAF | ≤ 0.2
278 | ATRR | 0.278
279 | LMKP | ≤ 0.2
280 | SAMC | ≤ 0.2
281 | TVLC | ≤ 0.2
282 | NRHG | ≤ 0.2
283 | LVKP | ≤ 0.2
284 | PTQS | ≤ 0.2
285 | ELLF | ≤ 0.2
286 | RLET | ≤ 0.2
287 | ILQC | ≤ 0.2
288 | KQTR | ≤ 0.2

Row | Variant | one-hybrid fitness for binding NBS DNA
289 | TDEE | ≤ 0.2
290 | LAIC | ≤ 0.2
291 | LKMS | ≤ 0.2
292 | HPGR | ≤ 0.2
293 | DTRH | ≤ 0.2
294 | MFMS | 0.249
295 | QHSR | 0.51
296 | EKLS | ≤ 0.2
297 | MRCM | ≤ 0.2
298 | DACR | ≤ 0.2
299 | WVGS | ≤ 0.2
300 | WRKV | ≤ 0.2
301 | VRAS | ≤ 0.2
302 | NQSC | ≤ 0.2
303 | HRAY | ≤ 0.2
304 | AMNA | ≤ 0.2
305 | QHLF | ≤ 0.2
306 | HIHN | ≤ 0.2
